# Assay results published in the GPR68 mutational scans of Howard et al. (2025).
# B1: GPR68, Q15743 (parent)
# chain: MGNITADNSSMSCTIDHTIHQTLAPVVYVTVLVVGFPANCLSLYFGYLQIKARNELGVYLCNLTVADLFYICSLPFWLQYVLQHDNWSHGDLSCQVCGILLYENIYISVGFLCCISVDRYLAVAHPFRFHQFRTLKAAVGVSVVIWAKELLTSIYFLMHEEVIEDENQHRVCFEHYPIQAWQRAINYYRFLVGFLFPICLLLASYQGILRAVRRSHGTQKSRKDQIQRLVLSTVVIFLACFLPYHVLLLVRSVWEASCDFAKGVFNAYHFSLLLTSFNCVADPVLYCFVSETTHRDLARLRGACLAFLTCSRTGRAREAYPLGAPEASGKSGAQGEEPELLTKLHPAFQTPNSPGSGGFPTGRLA
# Assays:
# [1] = variants of: B1; assay: cAMP reporter score (Enrich2 score, wild type = 0); higher = more signal; HEK293T, FACS bins
# [2] = variants of: B1; assay: surface expression score (Enrich2 score, wild type = 0); higher = more signal; HEK293T, FACS bins
Variant,cAMP reporter score ([1]; pH 5.5),"cAMP reporter score ([1]; pH 6, modulator: ogerin)","cAMP reporter score ([1]; pH 6.5, modulator: ogerin)",surface expression score [2],cAMP reporter score ([1]; pH 6)
Y59K,-1.52,-2.07,-1.48,-2.28,–
Y59L,-0.519,-1.41,-1.35,-2.79,-0.645
Y59M,-1.55,–,-1.39,-2.11,-2.79
Y59N,-0.845,-1.85,-1.61,-1.21,-0.25
Y59P,-1.61,-1.42,-0.296,-2.9,-0.781
Y59Q,-1.27,-1.49,-1.68,-2.58,–
Y59R,-2.04,-2.35,-0.835,-1.8,-0.485
Y59S,-1.82,-0.469,-2,-2.08,-1
Y59T,-0.437,-0.674,–,-1.42,-0.48
Y59V,-1.43,–,-1.46,-2.56,-0.615
Y59W,0.083,-0.656,-0.925,-4.72,-1.13
Y59_L60insG,-1.64,-2.37,-1.52,-2.51,-1.36
Y59_L60insGS,-0.963,-2.21,-1.31,-0.982,-1.06
L60A,1.19,-0.12,-0.698,-2.82,–
L60C,-0.21,-1.04,-0.385,-2.02,–
L60D,-1.32,-1.79,-1.13,-1.76,-1.03
L60E,-0.802,–,-1.4,-2.32,-0.574
L60F,-0.044,-1.02,-0.905,0.05,0.508
L60G,-1.48,-1.3,0.045,–,–
L60H,0.078,-0.132,0.056,-2.48,1.43
L60I,1.05,0.734,2.88,1.16,4.59
L60K,-0.83,–,-0.627,-1.78,-0.998

Variant,cAMP reporter score ([1]; pH 5.5),"cAMP reporter score ([1]; pH 6, modulator: ogerin)","cAMP reporter score ([1]; pH 6.5, modulator: ogerin)",surface expression score [2],cAMP reporter score ([1]; pH 6)
L60M,0.125,-0.828,-0.215,-0.22,0.832
L60N,-1.89,-0.939,0.175,-2.04,-1.95
L60P,-1.16,-0.779,-1.24,-2.42,-1.01
L60Q,-0.525,-1.33,-0.875,-2.34,1.5
L60R,-0.482,0.29,–,–,–
L60S,-1.72,-0.391,–,-2.4,-0.714
L60T,-0.954,-2.23,–,-2.74,-0.439
L60V,0.112,0.064,1.65,-2.21,1.8
L60W,-0.243,–,0.48,-1.41,-0.619
L60Y,-0.385,–,–,-0.424,–
L60_C61insGSG,-2.02,-1.21,-0.885,-2.31,-1.13
N62_L63insGS,-1.15,-0.801,-1.14,-3.25,-0.904
T64A,0.062,–,5.36,-0.349,4.18
T64C,0.93,2.13,–,2.74,6.02
T64D,-1.04,-0.851,-0.258,–,-1.86
T64E,-1.51,-2.11,-1.6,-3.1,-1.08
T64G,1.16,0.425,–,0.469,3.49
T64I,1.46,1.76,3.65,0.411,5.57
T64K,-0.069,-0.981,-0.916,-2.5,-0.178
T64L,1.58,1.73,2.66,1.47,3.35
T64M,-0.742,0,1.35,-0.994,2.22
T64N,0.521,0.554,1.21,-0.979,1.79

Variant,cAMP reporter score ([1]; pH 5.5),"cAMP reporter score ([1]; pH 6, modulator: ogerin)","cAMP reporter score ([1]; pH 6.5, modulator: ogerin)",surface expression score [2],cAMP reporter score ([1]; pH 6)
T64P,-0.761,-1.06,-0.321,-2.52,–
T64Q,-0.555,-0.338,-0.752,-0.462,-0.469
T64R,1.03,0.963,4.12,-1.71,5.25
T64S,0.104,1.36,–,-0.234,–
T64V,0.743,1.46,3.41,0.044,4.83
T64W,-0.045,-0.844,1.61,-1.24,2.54
T64Y,0.152,0.55,1.77,1.23,0.655
A66_L68del,-1.2,-1.66,-1.29,-2.46,-0.496
D67_L68insGS,-0.95,-1.18,-0.683,-2.08,–
F69_Y70del,-1.68,-1.1,-0.607,–,0.063
Y70_I71insGS,-2.02,-0.931,-0.12,-2.25,-1.3
Y70del,-1.32,-0.849,-0.081,-2.43,-0.465
I71A,-0.208,-0.624,-0.63,-1.81,-1.35
I71C,0.709,0.619,-0.286,–,1.14
I71F,-1.39,-1.81,-1.55,-2.56,-1.5
I71G,-1.51,0.658,-1.06,-2.04,0.74
I71H,-1.72,–,-1.53,-1.54,–
I71K,-1.37,-1.26,-0.202,-2.79,-2
I71L,0.52,0.568,1.3,0.075,2.21
I71M,0.304,0.353,0.293,1.17,0.006
I71N,-1.66,-1.31,-1.41,-2.15,-1.43

# The least precise scores are not listed. Two further conditions of the source, in which the scores hardly spread, are not listed. In variant names, del marks residues removed and ins residues inserted between the two positions. For some assays here: The data file names ogerin without a concentration.
